Laboratory results as given in publication PMC4336329 (PLoS ONE, 2015).
Among all 310,000 compounds or so, about 2,200 (0.71%) showed an effect of 50% or more. The effect is printed as a negative number. The list shows a part of the results. Where a SMILES comes first, the peptide text is derived from it. [ ]: non-standard residue; d: D form. pGlu = O=C1CC[CH](C(=O)O)N1

target: human ether-à-go-go-related gene (hERG) potassium channel (human, UniProt Q12809); experiment: primary screen, population patch clamp on CHO cells stably expressing hERG
Sequence (Q12809 whole entry, looked up): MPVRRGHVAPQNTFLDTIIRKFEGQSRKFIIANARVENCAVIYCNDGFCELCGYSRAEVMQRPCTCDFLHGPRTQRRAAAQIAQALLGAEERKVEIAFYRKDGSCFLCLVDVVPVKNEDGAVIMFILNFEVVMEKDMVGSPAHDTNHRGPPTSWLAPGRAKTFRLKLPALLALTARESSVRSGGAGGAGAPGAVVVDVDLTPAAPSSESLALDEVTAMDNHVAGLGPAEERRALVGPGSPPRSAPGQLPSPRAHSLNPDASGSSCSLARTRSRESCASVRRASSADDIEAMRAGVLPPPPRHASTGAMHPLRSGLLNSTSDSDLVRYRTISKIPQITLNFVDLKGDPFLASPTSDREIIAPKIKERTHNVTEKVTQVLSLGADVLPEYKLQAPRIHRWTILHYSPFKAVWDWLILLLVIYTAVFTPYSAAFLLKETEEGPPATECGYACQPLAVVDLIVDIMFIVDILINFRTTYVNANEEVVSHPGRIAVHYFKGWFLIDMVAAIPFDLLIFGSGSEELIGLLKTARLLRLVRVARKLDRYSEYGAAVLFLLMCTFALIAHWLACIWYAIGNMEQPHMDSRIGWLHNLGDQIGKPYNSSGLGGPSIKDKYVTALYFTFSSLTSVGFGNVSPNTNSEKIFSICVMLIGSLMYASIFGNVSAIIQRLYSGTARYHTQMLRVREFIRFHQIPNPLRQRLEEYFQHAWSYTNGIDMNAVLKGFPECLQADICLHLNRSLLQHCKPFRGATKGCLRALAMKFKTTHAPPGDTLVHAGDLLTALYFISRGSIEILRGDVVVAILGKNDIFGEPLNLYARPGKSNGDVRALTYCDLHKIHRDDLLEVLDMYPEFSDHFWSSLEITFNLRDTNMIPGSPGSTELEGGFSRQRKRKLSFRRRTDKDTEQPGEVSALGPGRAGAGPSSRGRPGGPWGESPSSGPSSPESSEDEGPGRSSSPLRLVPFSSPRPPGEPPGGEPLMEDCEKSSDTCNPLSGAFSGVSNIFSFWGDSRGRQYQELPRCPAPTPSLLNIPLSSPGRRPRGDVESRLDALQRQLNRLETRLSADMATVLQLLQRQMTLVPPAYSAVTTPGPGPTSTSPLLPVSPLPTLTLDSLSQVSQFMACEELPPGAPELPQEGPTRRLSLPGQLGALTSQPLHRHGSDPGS

Structure (SMILES) | hERG current change (%, negative = inhibition) at 1uM [%]
CCOc1ccc(NC(=O)CCN2CCN(S(=O)(=O)c3ccc(Cl)cc3)CC2)cc1 | 6.48
CC(=O)N1N=C(c2ccco2)CC1c1cc2ccc(C)cc2nc1Cl (centres unmarked) | 16.9
COc1nc2ccccc2nc1CCC(=O)O | 17.3
CCN1C(=O)N(CC)c2cccc3cccc1c23 | 10.4
Cc1ccccc1-c1nc(-c2ccc(NC(=O)c3ccc(Br)o3)cc2)no1 | -1.7
CCCCS(=O)(=O)N1CCCC(C(=O)Oc2ccccc2OC)C1 (centres unmarked) | 14.5
COc1ccc(NC(=O)C2C3C=CC4(O3)C2C(=O)N(CCN2CCCCC2C)C4C(=O)NC2CCCCC2)cc1 (centres unmarked) | 8.36
O=C1NC(=O)N(Cc2ccccc2)C1=O | 17.9
Cc1cc2oc(C(=O)NCCc3ccc(S(N)(=O)=O)cc3)cc(=O)c2cc1C | 15.2
COc1ccccc1CNC(=O)CN1CCC(NC(=O)c2ccccc2F)CC1.Cl | 1.06
COc1ccc(NC(=O)CN2C(=O)NC(C)(C3CC3)C2=O)cc1S(=O)(=O)N1CCOCC1 (centres unmarked) | 7.09
Cc1ccc(-c2cc(C(=O)N/N=C/c3ccc([N+](=O)[O-])o3)c3ccccc3n2)o1 | 10.8
O=C1Nc2cc(Br)ccc2C1(O)c1ccccc1O (centres unmarked) | 17.7
C[C@H](NS(=O)(=O)c1ccc2c(c1)OCCCO2)C(=O)N1CCN(Cc2ccc(C#N)cc2)CC1 | -24.9
O=C(Cc1cccs1)Nc1ccccc1-c1nc2ccccc2[nH]1 | 8.69
Cc1ccc2c(c1)C1CN(C)CCC1N2S(=O)(=O)c1ccc(C(C)C)cc1 (centres unmarked) | -29.4
CCOC(=O)c1cccc(NC(=O)c2ccc(F)cc2F)c1 | 5.69
N#CCC(=O)N/N=C/c1cn(Cc2cccc3ccccc23)c2ccccc12 | 12.2
Oc1c(C(c2ccccn2)N2CCCCC2)cc(Cl)c2cccnc12 (centres unmarked) | 9.14
O=C(Nc1ccccn1)c1ccc2nc(-c3ccccc3)c(-c3ccccc3)nc2c1 | 9.71
CCN(CC(=O)Nc1c(F)cccc1F)C(=O)C1CCN(S(=O)(=O)c2ccc(C)c(C)c2)CC1 | 12.7
C=CCOc1ccc(/C=C/C(=O)Nc2ccc(C(=O)NC)cc2)cc1 | 5.42

Structure (SMILES) | hERG current change (%, negative = inhibition) at 1uM [%]
Cc1nc(-c2ccc(-c3ccon3)s2)no1 | 12.9
O=C(Oc1ccc(Br)cc1C(=S)N1CCCCC1)c1cc([N+](=O)[O-])cc([N+](=O)[O-])c1 | 16.1
CCC(C)C(NC(=O)C(CC(C)C)NC(=O)C(CO)NC(=O)C1CCC(=O)N1)C(=O)OC (centres unmarked) ([pGlu]SLI-OMe; configuration not given here) | 9.98
COc1ccc(CC(C)NS(=O)(=O)c2ccc3c(c2)CCN3S(C)(=O)=O)cc1OC (centres unmarked) | -28.7
Cc1ccccc1Cn1c2ccccc2c2cnn(CC(=O)NCCCN3CCN(C)CC3)c(=O)c21 | 20.2
C=CCn1c(C)cc(C(=O)COC(=O)CNC(=O)c2ccccc2)c1C | 14.2
CSCC[C@H](NC(=O)OC(C)(C)C)C(=O)N/N=C/c1cccc2nccnc12 | 14.7
Cn1ncc(Br)c1C(=O)N/N=C/c1ccc(OS(=O)(=O)c2ccccc2)cc1 | 0.366
Cn1c(=O)c2c(nc(N3CCCCCC3)n2CC(=O)c2ccc(Br)cc2)n(C)c1=O | 10.1
CC(/C=C/c1ccco1)=N\NC(=O)CNc1ccc2ccccc2c1 | 13
CCc1ccc(N2CC(C(=O)N/N=C/c3cc([N+](=O)[O-])ccc3O)CC2=O)cc1 (centres unmarked) | 13.8
O=S(=O)(Nc1cccc2ccccc12)c1ccccc1F | 8
COc1cc(NC(=O)C2CC2)c(OC)cc1NC(=O)c1ccco1 | 17.2
CN1C(C(=O)NCc2ccco2)=CC(c2ccc(F)cc2)=NS1(=O)=O | -7.32
c1ccc(-c2cn3c(n2)SCC3)cc1 | 4.72
COc1ccc(Nc2nc(N3CCN(S(C)(=O)=O)CC3)nc3ccccc23)c(OC)c1 | 8.09
COc1ccc(C(=O)OCC(=O)N2CCCCC2)cc1[N+](=O)[O-] | 3.15
CC(NC(=O)c1ccco1)C(=O)N1CCN(c2ccccc2)CC1 (centres unmarked) | 14.9
Fc1ccccc1N=C1NN=C(c2ccccc2)CS1 | 5.63
Cc1ccc(-n2c(C)cc(C(=O)CSc3n[nH]c(N)n3)c2C)cc1 | 8.67
CC1CCCN(C(=O)COC(=O)Cc2ccc(Cl)cc2)C1 (centres unmarked) | 14.4
Nc1cc(Cl)ccc1N1CCOCC1 | 7.51
